Legend:
[1] = tested on: fol3Δ::KanMX met13Δ::KanMX cells; assay: Yeast growth complementation assay: human MTHFR variants in media lacking methionine with varying folinic acid; conditions: for functional impact and folate responsiveness (growth in absence of methionine): over the range of folinic acid concentrations tested
Description: (§1) FIG. 1. Effects of folinic acid supplementation on growth rate of fol3Δ::KanMX cells and cellular activity of human MTHFR. (a) Growth of fol3Δ::KanMX MET13 haploid yeast was measured in 96-well plates as described in Materials and Methods. Media was supplemented with folinic acid at the indicated concentrations. The curve labeled FOL3 (FOL3 MET13) was from growth in medium without folinic acid. (b) Growth of fol3Δ::KanMX met13Δ::KanMX haploid yeast transformed with phMTHFR in media lacking methionine and supplemented with folinic acid at the indicated concentrations. 3 independent transformants were tested at each folinic acid concentration to test reproducibility. The curve labeled met13Δ represented a single isolate of cells, transformed with empty vector, grown at 50 μg/ml folinic acid.
FIG. 2. Functional impact and folate-remediability of nonsynonymous MTHFR population variants. (a) 6 MTHFR variants were tested for the ability to rescue fol3Δ::KanMX met13Δ::KanMX cells in media lacking methionine at 3 different folinic acid concentrations. […] The curve labeled Major corresponds to the most common MTHFR allele in the population. Each curve is from a pool of 3-6 independent transformants. (b) Schematic of the MTHFR protein (656 amino acids) divided into a N-terminal catalytic domain and a C-terminal regulatory domain of nearly equal size (35). Positions of all nonsynonymous changes are indicated. Benign changes are in green. Changes numbered 1 through 4 represent folate-remedial alleles indicated in increasing order of severity.
Growth Conditions. Synthetic growth media lacking folate was minimal media (Sherman, 2002, Genetics & Molecular Biol., eds. Guthrie and Fink (Academic, New York), pp. 3-41) with Yeast Nitrogen Base without Vitamins (Obiogene), and all vitamins except folate added back individually. All fol3Δ::KanMX cells were supplemented with 50 μg/ml folinic acid (Sigma). For kinetic growth measurements, fol3Δ::KanMX met13Δ::KanMX cells were transformed with GAL1 promoter-driven MTHFR variants and grown to log phase in synthetic galactose medium (2% galactose, 0.1% glucose) supplemented with folinic acid (50 μg/ml) and methionine (20 μg/ml). Cells were washed 3 times and aliquoted into 96-well plates containing fresh galactose media with varying amounts of folinic acid, but lacking methionine. The volume per well was 200 μl with a starting cell density of OD595=0.01. Absorbance was tracked every 15-30 minutes for at least 60 hours in a Tecan GENios plate reader at 30° C. with no shaking. MET13 cells used in FIG. 1a were treated the same way except that all growth was in the absence of methionine.
MTHFR-folate interaction in vivo. […] Folate auxotrophy (fol3) was introduced into a met13 strain, allowing titration of intracellular folate concentrations by varying folinic acid in the growth media. Folinic acid (5-formyl-tetrahydrofolate) can be metabolized in yeast to methenyl-tetrahydrofolate, which in turn can be converted to other folate coenzymes (Cherest et al. (2000) J. Biol. Chem. 275:14056-63). In this way, human MTHFR functionality (growth in the absence of methionine) was measured as a function of increasingly limiting cellular folate status.

[2] = tested on: fol3Δ::KanMX MET13 haploid yeast; assay: Growth of folate-auxotroph yeast as a function of folinic acid supplementation
Description: as §1
Growth Conditions. Synthetic growth media lacking folate was minimal media (Sherman, 2002, Genetics & Molecular Biol., eds. Guthrie and Fink (Academic, New York), pp. 3-41) with Yeast Nitrogen Base without Vitamins (Obiogene), and all vitamins except folate added back individually. All fol3Δ::KanMX cells were supplemented with 50 μg/ml folinic acid (Sigma). […] Absorbance was tracked every 15-30 minutes for at least 60 hours in a Tecan GENios plate reader at 30° C. with no shaking. […]

[3] = tested on: cys4 sno1Δ sno2Δ sno3Δ snz1Δ snz2Δ snz3Δ yeast; assay: Yeast complementation growth assay for CBS as a function of pyridoxine (vitamin B6); conditions: pyridoxine supplementation varied
Description: Yeast strains were engineered to assay CTH and CBS as a function of intracellular vitamin B6 (pyridoxine) concentration (FIG. 6). The S. cerevisiae orthologs for CTH and CBS are cys3 and cys4, respectively, whose defect results in cysteine auxotrophy. Enzymes were tested as a function of pyridoxine concentration in a manner similar to that described herein for MTHFR except that the strain background is defective for pyridoxine biosynthesis (sextuple-delete sno1Δ sno2Δ sno3Δ snz1Δ snz2Δ snz3Δ; Stolz et al., 2003. Tpn1p, the plasma membrane vitamin B6 transporter of Saccharomyces cerevisiae. J Biol Chem 278:18990-18996) as well as either a cys3 or cys4 defect.

## R594Q: common human MTHFR variant, regulatory domain
[1]
  functional impact and folate responsiveness (growth in absence of methionine): benign

## Nc1nc2c(c(=O)[nH]1)N(C=O)C(CNc1ccc(C(=O)N[C@@H](CCC(=O)O)C(=O)O)cc1)CN2 (some centres unmarked) [folinic acid, 5-formyl-tetrahydrofolate]
[1]; folinic acid above 50 p g/ml
  effect of folinic acid supplementation on growth of cells expressing the major human allele: did not confer a significant growth advantage
[2]; folinic acid above 50 μg/ml
  effect of folinic acid supplementation on growth: did not confer any significant growth advantage
[2]; folinic acid below 50 μg/ml
  effect of folinic acid supplementation on growth: growth clearly correlated with available folinic acid in the medium

## R519C: human MTHFR variant, regulatory domain
[1]
  functional impact and folate responsiveness (growth in absence of methionine): benign

## A222V: human MTHFR variant, common polymorphism, catalytic domain
[1]; 50 p g/ml folate supplementation
  reduction in growth rate: 50%
[1]
  functional impact and folate responsiveness (growth in absence of methionine): folate-remedial behavior

B1: 1278T: homocystinuric allele of human CBS (protein, UniProt P35520 1-551, looked up, variant I278T)
Cystathionine beta-synthase: MPSETPQAEVGPTGCPHRSGPHSAKGSLEKGSPEDKEAKEPLWIRPDAPSRCTWQLGRPASESPHHHTAPAKSPKILPDILKKIGDTPMVRINKIGKKFGLKCELLAKCEFFNAGGSVKDRISLRMIEDAERDGTLKPGDTIIEPTSGNTGIGLALAAAVRGYRCIIVMPEKMSSEKVDVLRALGAEIVRTPTNARFDSPESHVGVAWRLKNEIPNSHILDQYRNASNPLAHYDTTADEILQQCDGKLDMLVASVGTGGTITGIARKLKEKCPGCRITGVDPEGSILAEPEELNQTEQTTYEVEGIGYDFIPTVLDRTVVDKWFKSNDEEAFTFARMLIAQEGLLCGGSAGSTVAVAVKAAQELQEGQRCVVILPDSVRNYMTKFLSDRWMLQKGFLKEEDLTEKKPWWWHLRVQELGLSAPLTVLPTITCGHTIEILREKGFDQAPVVDEAGVILGMVTLGNMLSSLLAGKVQPSDQVGKVIYKQFKQIRLTDTLGRLSHILEMDHFALVVHEQIQYHSTGKSSQRQMVFGVVTAIDLLNFVAAQERDQK
[3]
  sensitivity to limiting B6 levels (growth on solid media): more sensitive than the wild-type enzyme to limiting B6 levels
